Assay results published in the antibiotic and cytotoxicity screens of Wong et al. (2023).
Some of the results follow.

How the values were obtained:
HSkMC = human skeletal muscle cells; experiment: cytotoxicity call (relative viability < 0.9); settings: 10 µM
HepG2 = experiment: cytotoxicity call (relative viability < 0.9); settings: 10 µM
S. aureus RN4220 = experiment: growth inhibition call (relative growth <= 0.2); settings: 50 µM

SMILES	cytotoxicity call (HSkMC)	cytotoxicity call (HepG2)	growth inhibition call (S. aureus RN4220)
CCNC(=O)C[C@H]1CC[C@@H]2[C@H](COc3ccc(NS(=O)(=O)c4ccccc4C)cc3C(=O)N2C)O1	inactive	inactive	inactive
C[C@@H]1CN([C@H](C)CO)S(=O)(=O)c2ccc(-c3ccc(C(=O)N(C)C)cc3)cc2O[C@@H]1CN(C)C(=O)Cc1ccccn1	inactive	inactive	inactive
CC(C)(C)OC(=O)NC(=NCCCn1cc(-c2cccc(/C=C/C(=O)NO)c2)nn1)NC(=O)OC(C)(C)C	inactive	inactive	inactive
C[C@@H]1CCCCO[C@@H](CN(C)CC2CCCCC2)[C@@H](C)CN([C@@H](C)CO)C(=O)c2cc(NC(=O)Nc3ccccc3)ccc2O1	inactive	active	inactive
C[C@@H]1CCCCO[C@@H](CN(C)Cc2ccncc2)[C@@H](C)CN([C@@H](C)CO)C(=O)c2cc(NC(=O)CCC(F)(F)F)ccc2O1	inactive	inactive	inactive
C[C@H](CO)N1C[C@H](C)[C@@H](CN(C)Cc2ccc(C(F)(F)F)cc2)OCCCC[C@H](C)Oc2ccc(NS(=O)(=O)c3ccc(Cl)cc3)cc2C1=O	active	inactive	inactive
C[C@@H]1CN([C@H](C)CO)C(=O)c2cc(NS(=O)(=O)c3ccc(F)cc3)ccc2O[C@@H](C)CCCCO[C@@H]1CN(C)S(C)(=O)=O	inactive	inactive	inactive
C[C@@H]1CN([C@@H](C)CO)C(=O)c2cc(NC(=O)Cc3ccccc3)ccc2O[C@@H](C)CCCCO[C@H]1CN(C)Cc1ccc(C(F)(F)F)cc1	inactive	inactive	inactive
COc1ccc(NC(=O)Nc2ccc3c(c2)C(=O)N([C@@H](C)CO)C[C@H](C)[C@H](CN(C)S(C)(=O)=O)O3)cc1	inactive	active	inactive
COc1cccc(S(=O)(=O)N[C@H]2CC[C@H](CC(=O)NC3CCC3)O[C@@H]2CO)c1	inactive	inactive	inactive
Cc1noc(C)c1NC(=O)N(C)C[C@@H]1Oc2c(NC(=O)c3cnccn3)cccc2C(=O)N([C@@H](C)CO)C[C@@H]1C	inactive	inactive	inactive
O=C(C[C@@H]1CC[C@@H]2[C@H](COC[C@H](O)CN2C(=O)c2ccccn2)O1)NC1CCC1	inactive	inactive	inactive
CC(C)NC(=O)Nc1cccc2c1O[C@H](CN(C)S(=O)(=O)c1cn(C)cn1)[C@H](C)CN([C@@H](C)CO)C2=O	inactive	inactive	inactive
C[C@@H]1CN([C@@H](C)CO)C(=O)c2cc(NC(=O)Nc3ccc(F)cc3)ccc2O[C@H]1CN(C)Cc1ccc(C(F)(F)F)cc1	active	active	inactive
C[C@@H]1CCCCO[C@@H](CN(C)CC2CC2)[C@@H](C)CN([C@H](C)CO)C(=O)c2cc(NS(C)(=O)=O)ccc2O1	inactive	inactive	inactive
COc1ccc(S(=O)(=O)N(C)C[C@H]2Oc3c(NS(C)(=O)=O)cccc3C(=O)N([C@H](C)CO)C[C@H]2C)cc1	inactive	inactive	inactive
C[C@H](CO)N1C[C@H](C)[C@@H](CN(C)C(=O)Nc2ccc3c(c2)OCO3)Oc2c(NS(C)(=O)=O)cccc2C1=O	inactive	inactive	inactive
CCc1nc2ccccc2nc1CC	inactive	inactive	inactive
COc1ccc(CN(C)C[C@H]2OCCCC[C@H](C)Oc3ccc(NC(=O)Nc4ccc(C(F)(F)F)cc4)cc3C(=O)N([C@@H](C)CO)C[C@@H]2C)cc1	active	active	inactive
COCC#Cc1ccc([C@@H]2[C@H]3CN(C(=O)CN4CCOCC4)CC(=O)N3[C@H]2CO)cc1	inactive	inactive	inactive
O=C(CCCCCC(=O)Nc1ccccc1O)N/N=C/C[P+](c1ccccc1)(c1ccccc1)c1ccccc1	inactive	inactive	inactive
COc1ccccc1C#Cc1ccc2c(c1)O[C@H](CN(C)C(C)=O)[C@H](C)CN([C@@H](C)CO)S2(=O)=O	inactive	inactive	inactive
Cc1ncc([N+](=O)[O-])n1C[C@@H](CN1CCOCC1)OP(=O)(O)O	inactive	inactive	inactive
CN(C)/C=N/C(=S)N1CCOCC1	inactive	inactive	inactive
COc1ccc(NC(=O)N(C)C[C@@H]2OCCCC[C@H](C)Oc3ccc(NC(=O)c4ccncc4)cc3C(=O)N([C@@H](C)CO)C[C@@H]2C)cc1	inactive	inactive	inactive
C[C@H]1CN([C@@H](C)CO)C(=O)Cc2cc(NS(=O)(=O)c3ccccc3)ccc2O[C@H]1CN(C)Cc1ccc(Oc2ccccc2)cc1	inactive	inactive	inactive
C[C@@H]1CCCCO[C@H](CN(C)Cc2ccc3c(c2)OCO3)[C@@H](C)CN([C@@H](C)CO)C(=O)c2cc(NC(=O)CCC(F)(F)F)ccc2O1	inactive	inactive	inactive
C[C@H](CO)N1C[C@H](C)[C@@H](CN(C)S(=O)(=O)c2ccc(F)cc2)Oc2ccc(NC(=O)Nc3cccc4ccccc34)cc2CC1=O	inactive	inactive	inactive
